± gives the standard deviation. The full ranking holds about 3,700 sequences; the median of “pre-steady-state target cleavage rate” is about 0.02, and the highest 2% start at about 0.23. This is a selection; strong and weak results do not stand in their true shares.
Tested on: MILI (PIWIL2) piRISC loaded with Kctd7 piRNA (26 nt)
Experiment: pre-steady-state target cleavage rate (min^-1); MIWI and MILI are mouse PIWI proteins and EfPiwi is from a freshwater sponge; tags in brackets are library labels; higher = faster piRNA-guided slicing of the target
Conditions: guide: Kctd7 piRNA 5'p-UGUUAAUCUCUCAGAGAAGGUGACAG; auxiliary factor: 500 nM mouse GTSF1
Procedure, shortened: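 Active affinity-purified piRISC carrying one synthetic guide (1 nM) was mixed with a transcribed, DNA-blocked target RNA library […] in HEPES–potassium acetate buffer at 33 °C for 0–8 or 0–960 min, with or without 500 nM GTSF1 partner protein. Uncleaved targets were then sequenced and normalised to depth and to weakly complementary targets. Three trials were pooled, and k3 was capped at 0.0001 min^-1. A burst-and-steady-state fit was applied to obtain the pre-steady-state cleavage rate.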
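Also: 1 nM active piRISC with 0.1 nM target library at 33 °C single turnover.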

| Sequence | pre-steady-state target cleavage rate |
| --- | --- |
| UAGUGAGUCACCUUCUACUGAGAGAUUAACA | 0.0848 ± 0.022 |
| UAGUGACACACCUUCACAGAGAGAUUAACA | 0.0278 ± 0.0089 |
| UAGUGACUCUGCUUCUCUGAGAGAUUAAGA | 0.00863 ± 0.0028 |
| UAGUGAGUCACCUUCUCUGAGAGGAUUAACA | 0.129 ± 0.015 |
| UAGUGACAGUGGAAGAGUGACAGAUUAACA | < 0.0001 |
| UAGUGAGUCACCGUUCUCUGAGAGAUUAACA | 0.185 ± 0.02 |
| UAGUGUGUCACCUACUCUGAGAGAUAAACA | 0.128 ± 0.029 |
| UAGUGACUCACCUUCUCUGAGAGAUUAACU [g2:g23:cont:t1U] | 0.178 ± 0.018 |
| UAGUGAGUCACCUUCUCUGAGAGCAUUAACA | 0.149 ± 0.014 |
| UAGUGACAGACCUUCUGUGAGAGAAUAACA | 0.0592 ± 0.018 |
| UAGUCUGUCACCUUGUCUGAGACAUUAACA | 0.0544 ± 0.01 |
| UAGUCUGUCACCUUCAGUGAGAGAUUAACA | 0.0379 ± 0.0068 |
| UAGUGACUCACCUUCUCUGAGAGAUUAACG [g2:g23:cont:t1G] | 0.146 ± 0.012 |
| UAGUCUGCCACCUUCUCUGAGAGAUUAACA | 0.205 ± 0.012 |
| UAGUGACUCACCUUCUCUGAGAAAUUAACA | 0.113 ± 0.02 |
| UAGUGACUCACCUAGUCUGAGAGAUUAUGA | 0.0127 ± 0.0062 |
| UAGUGACUCACACUUCUCUGAGAGAUUAACA | 0.0432 ± 0.0076 |
| UAGUGACAGACCUUCUCUGAGAGAUUACCA | 0.0531 ± 0.017 |
| UAGUGACAGUGCUUCUCUGAGAGACUUAACA | 0.00395 ± 0.003 |
| UAGUGACUGACCUUCUCUGAGAGAUUAAGA | 0.0471 ± 0.015 |
| UAGUGUGUCACCUUCUCUCACAGAUUAACA | 0.0199 ± 0.009 |
| UAGUGACACACCUUCUCUGAGAGAUUAAGA | 0.0905 ± 0.018 |
| UAGUGACAGUGCUUCACUCAGAGAUUAACA | 0.00757 ± 0.0045 |
| UAGUCUGUCCACCUUCUCUGAGAGAUUAACA | 0.15 ± 0.018 |

| Sequence | pre-steady-state target cleavage rate |
| --- | --- |
| UAGUGUGUCACGUUCUCAGAGAGAUUAACA | 0.092 ± 0.0075 |
| UAGUGACACACCUUCUGUGAGACAUUAACA | 0.0578 ± 0.012 |
| UAGUGACUCACGUUCUCUGUGAGAUUAACA | 0.0244 ± 0.0029 |
| UAGUGUGUCAGGAUCUCUGAGAGAUUAACA | 0.0599 ± 0.0091 |
| UAGUGACAGUGCUUCACAGAGAGAUUAACA | 0.0054 ± 0.0031 |
| UAGUGACACAGCUUCUCUGAGAGAUUAUGA | 0.006 ± 0.0035 |
| UAGUGACAGACCUUCUCUGAGAGAUUACA | 0.0601 ± 0.014 |
| UAGUGACAGACCUUCUUGAGAGAUUAACA | 0.00879 ± 0.0048 |
| UAGUCACACACCUUCUCUGAGAGAUUAACA | 0.168 ± 0.011 |
| UAGUGUGUCACGAUCUCUGAGAGAUUAUGA | 0.0104 ± 0.0046 |
| UAGUGACACAGCUACUCUGAGAGAUUAACA | 0.038 ± 0.0055 |
| UAGUGUGACACCUUCUCUGAGAGAUUAACA | 0.214 ± 0.017 |
| UAGUGUGUGACCUUCUCUGAGACAUUAACA | 0.026 ± 0.0085 |
| UAGUGACAGACCUUCUGUGAGAGAUUAUCA | 0.0073 ± 0.0047 |
| UAGUGACUUCACCUUCUCUGAGAGAUUAACA | 0.199 ± 0.011 |
| UAGUGACAGACUCUUCUCUGAGAGAUUAACA | 0.0442 ± 0.0067 |
| UAGUGUGUCAGCUUGUCUGAGAGAUUAACA | 0.133 ± 0.011 |
| UAGUGACACACUUUCUCUGAGAGAUUAACA | 0.13 ± 0.0093 |
| UAGUGACACACCUUCUCUGAGAGAGUUAACA | 0.22 ± 0.028 |
| UAGUGACAGUCCUUCAUCUGAGAGAUUAACA | 0.00341 ± 0.0033 |
| UAGUGACAGUGCUUCUCUGAGGGAUUAACA | 0.00586 ± 0.0022 |
| UAGUGACACACCUUGUCUGAGAGUUUAACA | 0.0219 ± 0.012 |
| UAGUGACUCACCUUGAGUGAGAGAUUAACA | 0.0123 ± 0.0045 |
| UAGUGUGUCACGAUCUCUGAGAGAUUAAGA | 0.0396 ± 0.009 |

| Sequence | pre-steady-state target cleavage rate |
| --- | --- |
| UAGUGAGUGACCUUCUCAGAGAGAUUAACA | 0.121 ± 0.018 |
| UAGUGUGUCACCUUCUGAGAGAGAUUUUGA | 0.01 ± 0.0057 |
| UAGUGUGUGACCUUCUGUGAGAGAUUAACA | 0.139 ± 0.021 |
| UAGUGACAGUCCUACACUGAGAGAUUAACA | 0.0107 ± 0.0031 |
| UAGUGACACUCCUUCUCUGAGAGAUUAUGA | 0.00572 ± 0.0042 |
| UAGUGACUCACCAUCUCUCAGAGAUUAACA | 0.0257 ± 0.0053 |
| UAGUGACACUCCUUCUGUGAGAGAUUAACA | 0.0854 ± 0.012 |
| UAGUGUGUGACCUUCUCUGAGAGAUUAAGA | 0.0865 ± 0.018 |
| UAGUGAGUCACCUUCUCUGAGAUGAUUAACA | 0.153 ± 0.022 |
| UAGUGACACAGGAUCUCUGAGAGAUUAACA | 0.0138 ± 0.002 |
| UAGUGACUCAGCUUCUCUGAGAGAUUAAGA | 0.0201 ± 0.0048 |
| UAGUGACACACCUACUCUGAGAGAUAAACA | 0.0356 ± 0.0096 |
| UAGUGACAGUCCUUCUCUGAGAGAGUAACA | 0.0137 ± 0.0047 |
| UAGUCUGUGACCUACUCUGAGAGAUUAACA | 0.132 ± 0.0063 |
| UAGUGUGUCACCUUCUCUGAGAGUAAUUGA | 0.0693 ± 0.027 |
| UAGUGACAGUCCUUGAGUGAGAGAUUAUGA | < 0.0001 |
| UAGUGAGUCACCUUCUCUGUGAGAUUAUCA | 0.0358 ± 0.015 |
| UAGUGUGUCACCUUCUGUGAGAGAUUUACA | 0.0788 ± 0.022 |
| UAGUGACAGUGCUUCUCUGAGUCUAAUUGA [g10:g19:cont:t1A] | < 0.0001 |
| UAGUGACAGUGGAAGUCUGAGAGAUUAGACA | < 0.0001 |
| UAGUGACAGUCCUUCUCUGAGAGAUUCAACA | 0.0253 ± 0.0094 |
| UAGUGACAGUGGAAGAGAGACAGAAUAACA | < 0.0001 |
| UAGUCUGUCAGCUUCUCUGAGAGAUUAACA | 0.154 ± 0.0074 |

Source: the supplement of paper PMC10338343
